# According to PMC4336329 (PLoS ONE, 2015):
# Hit rate of the full screen: of about 310,000 compounds, about 2,200 (0.71%) showed an effect of 50% or more. Effects have a minus sign here. The list shows a part of the results.
# Molecular target: human ether-à-go-go-related gene (hERG) potassium channel (human, UniProt Q12809)
# Assay: primary screen, population patch clamp on CHO cells stably expressing hERG
# Sequence of human ether-à-go-go-related gene (hERG) potassium channel (Q12809 whole entry, looked up): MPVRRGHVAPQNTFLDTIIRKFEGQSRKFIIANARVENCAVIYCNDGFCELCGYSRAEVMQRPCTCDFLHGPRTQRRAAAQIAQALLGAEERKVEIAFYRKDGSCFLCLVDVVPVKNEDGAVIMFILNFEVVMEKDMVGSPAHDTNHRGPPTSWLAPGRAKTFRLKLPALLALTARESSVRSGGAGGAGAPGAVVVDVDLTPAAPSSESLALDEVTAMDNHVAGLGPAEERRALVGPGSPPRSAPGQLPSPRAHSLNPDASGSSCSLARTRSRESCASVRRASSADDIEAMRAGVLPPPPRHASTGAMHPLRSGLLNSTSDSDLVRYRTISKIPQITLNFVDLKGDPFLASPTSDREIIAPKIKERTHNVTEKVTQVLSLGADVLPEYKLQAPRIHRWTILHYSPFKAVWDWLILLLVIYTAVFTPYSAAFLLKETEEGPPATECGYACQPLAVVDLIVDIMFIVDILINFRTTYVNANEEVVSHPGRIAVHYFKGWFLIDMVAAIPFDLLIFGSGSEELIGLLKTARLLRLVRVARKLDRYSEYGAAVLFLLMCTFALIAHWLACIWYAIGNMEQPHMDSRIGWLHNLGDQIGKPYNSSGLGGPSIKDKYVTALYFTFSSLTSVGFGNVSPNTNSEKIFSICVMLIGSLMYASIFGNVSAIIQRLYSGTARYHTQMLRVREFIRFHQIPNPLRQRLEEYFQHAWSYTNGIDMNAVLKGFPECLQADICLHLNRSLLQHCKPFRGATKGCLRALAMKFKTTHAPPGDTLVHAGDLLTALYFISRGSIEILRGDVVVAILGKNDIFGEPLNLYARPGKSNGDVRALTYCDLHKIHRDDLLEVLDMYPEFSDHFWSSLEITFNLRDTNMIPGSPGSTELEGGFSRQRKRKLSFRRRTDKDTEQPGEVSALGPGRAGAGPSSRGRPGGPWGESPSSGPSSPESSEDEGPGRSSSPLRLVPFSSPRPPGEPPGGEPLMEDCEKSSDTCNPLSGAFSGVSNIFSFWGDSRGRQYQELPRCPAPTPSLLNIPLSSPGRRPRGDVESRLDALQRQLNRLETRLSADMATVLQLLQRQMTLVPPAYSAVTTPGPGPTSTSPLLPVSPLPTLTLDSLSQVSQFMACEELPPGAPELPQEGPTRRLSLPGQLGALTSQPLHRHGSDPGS
row,SMILES,"hERG current change (%, negative = inhibition) at 1uM [%]"
1,Cc1nc2c(-c3ccc(F)cc3)cnn2c2c1CCC2,4.99
2,Cc1cccc(NN=C2c3ccccc3-c3ccccc32)c1,5.82
3,COc1cc(OC)c(C2=NOC(C(=O)Nc3ccc4c(c3)OCO4)C2)cc1Cl (stereo not shown),3.04
4,Cc1ccc(OCC(=O)N/N=C\c2ccco2)c(C)c1,-1.08
5,Cc1ccc(-c2nc(C)sc2CC(=O)Nc2nnc(C)s2)cc1,7.08
6,O=C(NCCC1CCCCN1S(=O)(=O)c1cccs1)C(=O)Nc1ccc(F)cc1 (stereo not shown),8.29
7,Cc1ccc(N2C(=O)C(NC(=O)c3ccccc3)(C(F)(F)F)C3=C2CC(C)(C)CC3=O)cc1 (stereo not shown),11.7
8,O=C(CSc1nnc2ccc(-c3ccccn3)nn12)NCC1CCCO1 (stereo not shown),8.64
9,CCS(=O)(=O)N1CCC(C(=O)Oc2ccccc2Cl)CC1,14.1
10,O=C(Nc1ccc(Cl)c(Cl)c1)Nn1cnnc1,6.89
11,O=C(COC(=O)Cc1ccsc1)NCC12CC3CC(CC(C3)C1)C2,9.27
12,COc1ccc(Cl)cc1Nc1nnc(-c2ccncc2)s1,4.31
13,C=CCNC(=O)/C(C#N)=C/c1ccc(C)o1,17.2
14,COC(=O)C(O)(c1c(C)[nH]c2ccccc12)C(F)(F)F (stereo not shown),5.55
15,CC(C)(C)c1ccc(C(=O)N2CCC(C(=O)N3CCCCC3)CC2)cc1,7.7
16,CCOC(=O)N1CCN(C(=O)c2cc3sccc3n2C)CC1,8.81
17,COC(=O)CN1C(=O)C(O)=C(C(C)=O)C1c1ccc([N+](=O)[O-])cc1 (stereo not shown),-0.624
18,Cc1c(C(=O)NCCC2=CCCCC2)oc2ccc(S(=O)(=O)N3CCC4(CC3)OCCO4)cc12,10.6
19,COc1ccc(NS(=O)(=O)c2ccc(S(=O)(=O)N3CCCC3)cc2)cc1Cl,-3.44
20,Cc1cc(N2C(=O)C(O)=C(C(=O)c3cc4ccccc4o3)C2c2cccc(Br)c2)no1 (stereo not shown),16.2
21,CNC(=O)N(O)C1N(/N=C/c2ccccc2O)C(=S)SC1(C)C (stereo not shown),5.59
22,O=S(=O)(Nc1cccc(C(F)(F)F)c1)c1cccnc1,7.26

row,SMILES,"hERG current change (%, negative = inhibition) at 1uM [%]"
1,O=[N+]([O-])c1cccc(-c2ccc(SCc3ccccn3)nn2)c1,5.92
2,CN1c2ccsc2C(O)=C(C(=S)Nc2ccccc2)S1(=O)=O,8.83
3,CCCCN(C(=O)CCC(=O)Nc1cc(C)on1)C(C(=O)NC1CCCC1)c1ccc(F)cc1 (stereo not shown),7.75
4,Nc1c(-c2cccc([N+](=O)[O-])c2)nc2ccccn12,4.59
5,O=c1[nH]c(CN2CCN(c3ccccc3O)CC2)nc2ccccc12,7.1
6,CN1CCN(C(N)=NC(=O)c2ccccc2)CC1,6.48
7,CCOc1cccc(C(=O)N/N=C/c2ccoc2)c1,13.3
8,Cc1ccc(C)c(C(=O)CN2C(=O)NC3(CCc4ccccc43)C2=O)c1 (stereo not shown),3.21
9,COc1ccccc1NC(=O)c1cccc(S(=O)(=O)N2CCOCC2)c1,8.31
10,Cc1ccc(C)c(N2CCN(CCCc3ccccc3)CC2)c1,1.81
11,C/C(=N\NC(=O)C(C)Sc1ccccc1)c1ccc([N+](=O)[O-])cc1 (stereo not shown),8.3
12,O=S(=O)(Nc1ccc(N2CCCCC2)cc1)c1cccc2cccnc12,-0.541
13,Cc1cc(NC(=O)COC(=O)COc2ccc(C(=O)c3ccccc3)cc2)no1,6.99
14,C/C(CC(=O)Nc1cccnc1)=N\NC(=O)C(C)Oc1ccc(Cl)cc1Cl (stereo not shown),15.6
15,OC(CN1CCN(Cc2ccccc2)CC1)Cn1c2ccccc2c2ccccc21 (stereo not shown),11.7
16,Cc1ccc(Sc2ccc(/C=C3/C(=O)NN(c4ccccc4)C3=O)o2)cc1,10.5
17,C=CCOc1ccc(/C=N\NC(N)=S)cc1,12
18,COc1cc(CNC2CCCCCCC2)cc(Cl)c1OCC(N)=O.Cl,9.62
19,CCNc1c(NC(=O)C2CCC(C)CC2)c(=O)oc2ccccc12 (stereo not shown),11.3
20,CN(C)CCCNC(=O)/C(=C\c1ccc(-c2cccc([N+](=O)[O-])c2)o1)NC(=O)c1ccccc1,-77.9
21,CCOC(=O)C1CCN(C(=O)c2ccc(CNS(=O)(=O)c3ccc(OC)cc3)cc2)CC1,2.8
22,Cc1cc(C(=O)CSc2nnc(-c3ccc4c(c3)OCO4)o2)c(C)n1-c1ccc(F)cc1,5.94

row,SMILES,"hERG current change (%, negative = inhibition) at 1uM [%]"
1,CCOc1ccc(NC(=O)CS(=O)CC(=O)Nc2cccnc2)cc1 (stereo not shown),17.7
2,COc1ccccc1N(CC(=O)N1CCOCC1)S(C)(=O)=O,15.9
3,CCOc1ccc(NC(=O)CC2NCCNC2=O)cc1 (stereo not shown),4.11
4,CN1CCN(C(=O)NCC23CC4CC(CC(C4)C2)C3)CC1,11.9
5,CC(=O)Nc1ccc(NC(=O)CSc2ccc(C(F)(F)F)cc2[N+](=O)[O-])cc1,7.37
6,O=C(Nc1ccccc1N1CCCC1)C1CCN(S(=O)(=O)c2cccc(C(F)(F)F)c2)CC1,10.3
7,Cc1cccc(/C(N)=N/OC(=O)c2ccc(Cl)cc2Cl)c1,8.57
8,C/C(=N\Nc1ccccn1)c1ccc(Br)s1,0.307
9,Cc1ccc(/C=C2\Sc3ccccc3C2=O)s1,8.98
10,Cc1nn2c(C)c(C(=O)Nc3ccccc3)cnc2c1-c1ccccc1,7.99
11,Cc1ccc(OCC(=O)NCCCNC(=O)c2ccco2)cc1,11.6
12,O=C(N/N=C/c1ccccc1F)c1ccccc1OCc1ccccc1,10.8
13,CS(=O)(=O)N(CC(=O)N1CCN(c2ccccc2F)CC1)c1cccc(C(F)(F)F)c1,-0.389
14,COc1cccc(C2C(C#N)=C(N)Oc3c2oc(CO)cc3=O)c1OC (stereo not shown),2.89
15,Nc1ccc(NC(=O)NC2CCCCC2)cc1[N+](=O)[O-],16.7
16,Cc1cc2c3c([nH]c2cc1S(=O)(=O)NCCCOC(C)C)CC(C)(C)CC3=O,6.94
17,C#CCOCCOCCOCCNc1nc(N2CCN(C(=O)C(Cc3cc4ccccc4[nH]3)n3cc(C(N)C(C)CC)nn3)CC2)nc(N2CCN(C(=O)C(Cc3cc4ccccc4[nH]3)n3cc(C(N)C(C)CC)nn3)CC2)n1.Cl (stereo not shown),6.36
18,Cc1ccc(CN(C)C(=O)c2ccc3c(c2)NC(=O)CS3)o1,-7.62
19,O=C1C2C3C=CC(CC3)C2C(=O)N1/N=C/c1c(O)ccc2ccccc12 (stereo not shown),6.58
20,CCSCCOC(=O)C1=C(C)NC(=O)NC1c1cccc(OC)c1OC (stereo not shown),10.7
21,COc1cccc(/C=C/c2nc(S(=O)(=O)c3ccccc3)c(N(C)C)o2)c1,12.5
22,N#CC(C#N)=C1NC(N)=C(C#N)C(c2ccccc2)=C1C#N,-2.99

row,SMILES,"hERG current change (%, negative = inhibition) at 1uM [%]"
1,O=C(NCCCCCc1nc2ccccc2[nH]1)c1ccccc1Cl,13.8
2,COc1ccc(-c2[nH]c(-c3ccc(SC)cc3)nc2SCC(=O)Nc2nccs2)cc1,9.04
3,Cc1nc(NC(=O)COC(=O)c2ccc(S(=O)(=O)N3CCc4ccccc4C3)cc2)c(Cl)cc1Cl,6.95
4,CCOc1ncccc1C(=O)OCc1c(Cl)cccc1Cl,10.9
5,O=C(COC(=O)c1ccc(O)cc1)NCC1COc2ccccc2O1 (stereo not shown),-2.74
6,Cc1cccc(C(=O)NC(=S)NC(C)c2ccccc2)c1 (stereo not shown),11.9
7,CCCn1c(=O)c2sccc2n2c(CCCC(=O)NC3CCN(Cc4ccccc4)CC3)nnc12,0.0751
8,O=C(Nc1cccc(O)c1)c1cc(-c2cccs2)on1,7
9,CC(C)(C)c1ccc(S(=O)(=O)NCc2ccccn2)cc1,8.87
10,O=C(Oc1oc(-c2ccco2)nc1C=Nc1ccccc1)c1ccco1,14.4
11,O=C(CN1CCOCC1)Nc1nc2ccc([N+](=O)[O-])cc2s1,-9.36
12,O=C(CN1CCOCC1)Nc1ccccc1Sc1ccccc1,3.64
13,CCC(=O)Oc1ccc(C(=O)Nc2ccc3c(c2)C(=O)N(C2CCCCC2)C3=O)cc1,19.8
14,Cc1ccc(S(=O)(=O)NCc2ccncc2)cc1C(=O)NCC(C)C,10.7
15,CCCOc1ccc(C(O)(CCC)CCN2CCCCC2)cc1 (stereo not shown),-25.4
16,Cc1cc(N(C)/N=C/c2ccccc2)nc(-c2ccccc2O)n1,-1.01
17,Cc1nc(SCCc2ccccc2)[nH]c(=O)c1C,13.9
18,O=C(CCc1nc2ccccc2s1)OCc1ccccc1F,10.5
19,Cn1c(=O)n(C)c2cc(/C=N/NC(=O)c3ccc(Cl)cc3)ccc21,18.4
20,O=c1cc2c(n[nH]1)-c1ccccc1CC2,10.1
21,CCOC(=O)N1CCN(C(=O)c2cc3c(=O)n4cccc(C)c4nc3s2)CC1,1.13
22,CCO[C@H]1OC(C(=O)N2CCN(Cc3ccccc3)CC2)=C[C@@H](C2CCCCC2)[C@@H]1CCCO,14.6
